In a compilation of properties of binary mixtures (doi:10.1007/s10953-007-9186-6):
Some of these densities may be calculated back from excess volumes.

Assay: xn = mol fraction of the nth substance listed
Details: 101 kPa

CCCC[n+]1ccn(C)c1.F[B-](F)(F)F + ClCCCCl
x2 = 0
Details	mass density [kg/m3]
293.15 K	1204.9
303.15 K	1197.8
308.15 K	1194.2
313.15 K	1190.7

CCCC[n+]1ccn(C)c1.F[B-](F)(F)F + CO
mass density [kg/m3]
Details	293.15 K	298.15 K	303.15 K	308.15 K	313.15 K	318.15 K	323.15 K
x2 = 0	1204.9	–	–	–	–	–	1183.7
x2 = 0.0962	1196.4	–	1189.2	1185.6	1182	–	1174.9
x2 = 0.1577	1190.2	1186.5	1182.9	1179.3	1175.7	–	1168.6
x2 = 0.2153	1183.5	–	1176.2	1172.5	1168.9	1165.3	1161.7
x2 = 0.2658	–	1173.3	1169.7	1166	–	–	1155.1
x2 = 0.3271	1168.2	–	1160.8	1157.1	1153.4	1149.7	1146.1
x2 = 0.426	1151.8	–	1144.3	–	1136.8	–	–
x2 = 0.5483	1124.5	1120.6	1116.8	1112.9	1109.1	1105.3	1101.5
x2 = 0.6279	1101.5	1097.6	1093.6	–	1085.8	–	–
x2 = 0.6765	1084.2	1080.2	1076.2	1072.2	1068.3	–	–
x2 = 0.7459	1053.4	1049.4	1045.3	1041.2	1037.2	–	1029.1
x2 = 0.8013	1022	–	1013.7	1009.5	1005.4	1001.2	997.1
x2 = 0.8495	987.3	983	978.8	974.5	970.3	966.1	–
x2 = 0.9012	–	935.4	931	–	922.3	–	913.6
x2 = 0.9514	877.2	872.7	–	863.7	859.2	854.6	850.1

CO + CCCC[n+]1ccn(C)c1.F[B-](F)(F)F
x1 = 1
Details	mass density [kg/m3]
293.15 K	791.3
323.15 K	762.6

CCCC[n+]1ccn(C)c1.F[B-](F)(F)F + COC(=O)OC
mass density [kg/m3]
Details	293.15 K	298.15 K	303.15 K	308.15 K	313.15 K	318.15 K	323.15 K
x2 = 0	1205	–	1197.9	1194.3	1190.8	1187.3	1183.8
x2 = 0.1152	1200.1	1196.4	1192.8	–	1185.4	–	1178.2
x2 = 0.1845	1196.6	–	1189.1	–	1181.6	1177.9	1174.2
x2 = 0.2832	1191.7	1187.9	1184	1180.2	–	1172.5	1168.7
x2 = 0.402	–	–	–	1171.8	1167.8	1163.8	–
x2 = 0.4979	1175.9	1171.7	1167.5	–	1159.2	1155	1150.9
x2 = 0.6015	–	–	1156.3	1151.9	1147.5	1143.1	1138.7
x2 = 0.6709	1156	1151.3	1146.7	1142.1	1137.5	1132.9	1128.3
x2 = 0.7367	1145.7	1140.8	1136	1131.1	1126.3	1121.4	1116.6
x2 = 0.7953	1134.6	–	–	1119.3	1114.2	1109.1	1104
x2 = 0.8451	1122.5	–	1111.7	1106.3	1100.9	1095.5	–
x2 = 0.8949	1110.7	1105	1099.4	1093.7	1088	1082.4	1076.7

ClCCCCl + CCCC[n+]1ccn(C)c1.F[B-](F)(F)F
mass density [kg/m3]
Details	293.15 K	298.15 K	303.15 K	308.15 K	313.15 K	318.15 K	323.15 K
x1 = 0.0972	1204.8	–	1197.6	1193.9	1190.3	1186.7	–
x1 = 0.2137	1204.7	–	–	–	1189.6	1185.9	1182.2
x1 = 0.3214	1204.3	–	1196.4	1192.5	–	1184.8	1181
x1 = 0.4045	1203.8	–	–	1191.7	1187.7	1183.7	1179.7
x1 = 0.4534	1203.5	–	1195.3	1191.2	1187.1	1183	1178.9
x1 = 0.4746	–	–	–	–	–	1182.6	1178.5
x1 = 0.5374	1202.7	–	1194.1	1189.9	1185.6	1181.4	1177.1
x1 = 0.5958	1201.9	–	–	1188.7	1184.3	1179.9	–
x1 = 0.6472	1201.1	–	1192	1187.4	1182.9	1178.4	1173.9
x1 = 0.7183	1199.5	–	1189.9	1185.2	1180.4	1175.7	1171
x1 = 0.7899	1197.4	–	1187.3	1182.3	1177.3	1172.3	1167.3
x1 = 0.8484	1195.1	–	1184.5	–	–	1168.7	1163.4
x1 = 0.8865	–	–	1182.3	1176.9	1171.4	–	1160.5
x1 = 0.9464	1189.9	–	1178.3	–	–	1160.9	1155
x1 = 1	1185.3	1179.1	1172.9	–	1160.4	1154.2	1147.9

COC(=O)OC + CCCC[n+]1ccn(C)c1.F[B-](F)(F)F
x1 = 1
Details	mass density [kg/m3]
293.15 K	1069.9
303.15 K	1056.7
308.15 K	1050.1
313.15 K	1043.4
318.15 K	1036.7
323.15 K	1030
